Experimental data as given in PMC4203352.
Results are given in words; binding and its absence hold for the method and conditions named. For some assays here: In cells and extracts the contact can be indirect. Some entries that bind do so weakly or less than the wild type. For some assays here: Where a sequence is shown, tags or fusion partners need not be part of it.

By UniProt entry, the sequences of proteins in these tests, tags left out. Residues count along the entry.
UniProt Q8NBS9, residues 33-432: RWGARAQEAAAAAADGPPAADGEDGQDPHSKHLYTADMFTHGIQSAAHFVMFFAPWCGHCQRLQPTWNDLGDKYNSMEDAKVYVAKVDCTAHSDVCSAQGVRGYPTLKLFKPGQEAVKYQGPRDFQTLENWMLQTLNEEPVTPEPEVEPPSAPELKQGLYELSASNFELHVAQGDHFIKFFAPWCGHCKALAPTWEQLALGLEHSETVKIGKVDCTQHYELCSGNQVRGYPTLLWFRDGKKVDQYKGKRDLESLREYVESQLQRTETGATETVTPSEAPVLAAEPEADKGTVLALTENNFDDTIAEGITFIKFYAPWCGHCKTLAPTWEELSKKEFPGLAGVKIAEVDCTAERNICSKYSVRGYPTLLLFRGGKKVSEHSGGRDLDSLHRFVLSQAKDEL
UniProt P07237, residues 18-508: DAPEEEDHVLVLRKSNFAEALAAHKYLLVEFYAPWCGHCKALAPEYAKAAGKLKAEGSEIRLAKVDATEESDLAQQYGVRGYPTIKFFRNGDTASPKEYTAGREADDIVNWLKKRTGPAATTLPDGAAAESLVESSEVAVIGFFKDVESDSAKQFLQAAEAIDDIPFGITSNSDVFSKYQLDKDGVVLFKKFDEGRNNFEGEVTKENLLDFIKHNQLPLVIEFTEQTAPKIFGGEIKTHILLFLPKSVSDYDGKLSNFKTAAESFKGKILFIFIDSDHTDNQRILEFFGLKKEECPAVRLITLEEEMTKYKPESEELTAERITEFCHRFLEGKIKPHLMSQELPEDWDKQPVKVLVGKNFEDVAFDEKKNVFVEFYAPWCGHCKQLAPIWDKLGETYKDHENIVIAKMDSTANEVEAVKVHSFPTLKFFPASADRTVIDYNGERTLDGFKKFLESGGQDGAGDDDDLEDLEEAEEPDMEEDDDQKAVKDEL

Experiments:
[1] = molecular target: PDIA15, HA tag (UniProt Q8NBS9); assay: pull-down; reverse pulldown: affinity chromatography of the PDIs from lysates of transfected HEK293TN cells, Txnip detected by Western blot
[2] = molecular target: T1, PDIA4, HA tag (UniProt P13667); assay: as above
T1 sequence: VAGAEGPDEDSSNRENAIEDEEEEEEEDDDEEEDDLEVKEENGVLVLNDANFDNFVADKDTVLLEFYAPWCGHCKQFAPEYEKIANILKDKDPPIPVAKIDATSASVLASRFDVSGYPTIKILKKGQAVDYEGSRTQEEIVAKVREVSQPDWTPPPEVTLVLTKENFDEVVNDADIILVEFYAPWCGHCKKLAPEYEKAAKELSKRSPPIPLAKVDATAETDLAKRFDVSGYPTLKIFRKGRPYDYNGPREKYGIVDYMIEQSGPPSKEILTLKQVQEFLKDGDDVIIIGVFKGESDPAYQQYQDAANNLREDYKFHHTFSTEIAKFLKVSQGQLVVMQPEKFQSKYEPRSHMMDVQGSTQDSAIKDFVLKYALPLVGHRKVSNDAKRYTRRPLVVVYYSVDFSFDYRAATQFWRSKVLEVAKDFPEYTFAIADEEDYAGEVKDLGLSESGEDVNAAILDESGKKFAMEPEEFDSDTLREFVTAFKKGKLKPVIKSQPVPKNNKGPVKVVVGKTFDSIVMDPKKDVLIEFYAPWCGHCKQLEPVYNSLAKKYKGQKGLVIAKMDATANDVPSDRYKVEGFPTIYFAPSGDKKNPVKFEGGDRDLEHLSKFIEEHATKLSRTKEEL

[3] = molecular target: T2, PDIA13, HA tag (UniProt Q96JJ7); assay: as above
T2 sequence: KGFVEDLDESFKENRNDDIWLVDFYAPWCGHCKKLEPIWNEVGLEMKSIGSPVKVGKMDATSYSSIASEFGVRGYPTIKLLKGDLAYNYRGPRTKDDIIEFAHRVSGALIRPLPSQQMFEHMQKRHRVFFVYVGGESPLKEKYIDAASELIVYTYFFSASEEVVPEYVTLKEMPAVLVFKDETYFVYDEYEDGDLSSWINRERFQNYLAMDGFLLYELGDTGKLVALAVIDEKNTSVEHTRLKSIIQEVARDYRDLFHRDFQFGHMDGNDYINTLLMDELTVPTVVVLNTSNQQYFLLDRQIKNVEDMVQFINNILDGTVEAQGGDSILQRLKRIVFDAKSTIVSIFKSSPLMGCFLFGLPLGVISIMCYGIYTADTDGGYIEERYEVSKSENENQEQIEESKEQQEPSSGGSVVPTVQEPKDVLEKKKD

[4] = molecular target: PDI (protein disulfide isomerase), HA tag (UniProt P07237); assay: as above
[5] = molecular target: T3, full-length PDIA6 (1-421), HA tag (UniProt Q15084); assay: as above
T3 sequence: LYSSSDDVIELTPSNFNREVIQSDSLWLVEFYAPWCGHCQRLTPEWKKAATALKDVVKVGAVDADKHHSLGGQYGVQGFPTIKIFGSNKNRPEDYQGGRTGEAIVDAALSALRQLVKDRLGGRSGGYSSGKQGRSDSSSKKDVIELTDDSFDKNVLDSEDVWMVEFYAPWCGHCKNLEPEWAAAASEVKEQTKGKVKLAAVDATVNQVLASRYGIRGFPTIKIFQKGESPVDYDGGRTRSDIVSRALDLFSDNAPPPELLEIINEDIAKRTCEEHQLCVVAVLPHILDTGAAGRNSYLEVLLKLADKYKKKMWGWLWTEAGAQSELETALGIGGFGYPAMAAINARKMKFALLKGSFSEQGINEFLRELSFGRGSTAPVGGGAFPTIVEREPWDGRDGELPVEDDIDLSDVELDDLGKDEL

[6] = molecular target: T4, Thioredoxin-interacting protein (Txnip), N-terminal tandem Strep/FLAG tag (UniProt Q9H3M7); assay: pull-down; HEK293TN cells transfected with Txnip or Txnip C247S only; Txnip held on Streptactin beads; endogenous PDIA6 detected by Western blot
T4 sequence: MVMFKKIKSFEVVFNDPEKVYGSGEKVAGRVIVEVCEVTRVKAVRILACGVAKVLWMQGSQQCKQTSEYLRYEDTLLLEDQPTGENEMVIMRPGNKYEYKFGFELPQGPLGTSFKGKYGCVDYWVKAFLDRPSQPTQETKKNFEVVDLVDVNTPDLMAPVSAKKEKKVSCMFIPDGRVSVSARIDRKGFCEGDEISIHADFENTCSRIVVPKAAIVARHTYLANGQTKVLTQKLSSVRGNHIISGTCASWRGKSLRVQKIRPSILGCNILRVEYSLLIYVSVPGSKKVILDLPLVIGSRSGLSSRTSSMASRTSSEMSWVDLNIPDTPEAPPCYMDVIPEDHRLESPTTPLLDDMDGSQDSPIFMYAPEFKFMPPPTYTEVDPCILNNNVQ

[7] = molecular target: T5, Txnip C247S mutant, N-terminal tandem Strep/FLAG tag (UniProt Q9H3M7); assay: as above
T5 sequence: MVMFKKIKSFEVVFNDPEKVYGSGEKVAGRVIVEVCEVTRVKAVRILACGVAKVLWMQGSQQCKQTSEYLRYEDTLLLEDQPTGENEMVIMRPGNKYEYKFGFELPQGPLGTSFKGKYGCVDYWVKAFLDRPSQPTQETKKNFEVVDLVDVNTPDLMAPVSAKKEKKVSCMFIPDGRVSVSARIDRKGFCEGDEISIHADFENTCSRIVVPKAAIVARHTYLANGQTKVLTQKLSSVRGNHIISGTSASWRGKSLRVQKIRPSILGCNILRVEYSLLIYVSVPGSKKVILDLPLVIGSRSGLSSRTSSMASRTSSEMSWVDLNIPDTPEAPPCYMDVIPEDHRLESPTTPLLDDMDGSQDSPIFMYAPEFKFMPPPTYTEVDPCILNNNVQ

[8] = molecular target: PDI (in the NEM trapping experiment) (UniProt P07237); assay: free sulfhydryl alkylation (NEM) trapping, non-reducing SDS-PAGE and Western blot; all free cysteine residues blocked with N-ethylmaleimide; non-reducing SDS-PAGE and Western blot of Txnip-PDI complexes

B1: Thioredoxin-interacting protein (Txnip), N-terminal tandem Strep/FLAG tag (protein, UniProt Q9H3M7 1-391)
chain: MVMFKKIKSFEVVFNDPEKVYGSGEKVAGRVIVEVCEVTRVKAVRILACGVAKVLWMQGSQQCKQTSEYLRYEDTLLLEDQPTGENEMVIMRPGNKYEYKFGFELPQGPLGTSFKGKYGCVDYWVKAFLDRPSQPTQETKKNFEVVDLVDVNTPDLMAPVSAKKEKKVSCMFIPDGRVSVSARIDRKGFCEGDEISIHADFENTCSRIVVPKAAIVARHTYLANGQTKVLTQKLSSVRGNHIISGTCASWRGKSLRVQKIRPSILGCNILRVEYSLLIYVSVPGSKKVILDLPLVIGSRSGLSSRTSSMASRTSSEMSWVDLNIPDTPEAPPCYMDVIPEDHRLESPTTPLLDDMDGSQDSPIFMYAPEFKFMPPPTYTEVDPCILNNNVQ
[1]
  binding: binds
[2]
  binding: binds
[3]
  binding: binds
[4]
  binding: binds
[5]
  binding: binds

B2: endogenous PDIA6 (enzyme, UniProt Q15084 20-440)
chain: LYSSSDDVIELTPSNFNREVIQSDSLWLVEFYAPWCGHCQRLTPEWKKAATALKDVVKVGAVDADKHHSLGGQYGVQGFPTIKIFGSNKNRPEDYQGGRTGEAIVDAALSALRQLVKDRLGGRSGGYSSGKQGRSDSSSKKDVIELTDDSFDKNVLDSEDVWMVEFYAPWCGHCKNLEPEWAAAASEVKEQTKGKVKLAAVDATVNQVLASRYGIRGFPTIKIFQKGESPVDYDGGRTRSDIVSRALDLFSDNAPPPELLEIINEDIAKRTCEEHQLCVVAVLPHILDTGAAGRNSYLEVLLKLADKYKKKMWGWLWTEAGAQSELETALGIGGFGYPAMAAINARKMKFALLKGSFSEQGINEFLRELSFGRGSTAPVGGGAFPTIVEREPWDGRDGELPVEDDIDLSDVELDDLGKDEL
[6]
  binding: binds
[7]
  binding: no binding

B3: Txnip (in the NEM trapping experiment) (protein, UniProt Q9H3M7 1-391)
chain: MVMFKKIKSFEVVFNDPEKVYGSGEKVAGRVIVEVCEVTRVKAVRILACGVAKVLWMQGSQQCKQTSEYLRYEDTLLLEDQPTGENEMVIMRPGNKYEYKFGFELPQGPLGTSFKGKYGCVDYWVKAFLDRPSQPTQETKKNFEVVDLVDVNTPDLMAPVSAKKEKKVSCMFIPDGRVSVSARIDRKGFCEGDEISIHADFENTCSRIVVPKAAIVARHTYLANGQTKVLTQKLSSVRGNHIISGTCASWRGKSLRVQKIRPSILGCNILRVEYSLLIYVSVPGSKKVILDLPLVIGSRSGLSSRTSSMASRTSSEMSWVDLNIPDTPEAPPCYMDVIPEDHRLESPTTPLLDDMDGSQDSPIFMYAPEFKFMPPPTYTEVDPCILNNNVQ
modifications: free cysteine residues blocked with N-ethylmaleimide (NEM)
[8]
  binding: binds
